Measured values as given in the supplement of paper PMC3334620.
Whole data set: some 33,000 sequences, median “E-score (-0.5 to 0.5)” near -0.01, cut for the highest 2% near 0.26. Some of the results follow.

What follows are sequences tested against Ste12 (UniProt P13574) (assay: PBM E-score (8-mer binding enrichment) (E-score (-0.5 to 0.5)); higher = stronger / more preferred TF binding; most listed sequences are background and not binding sites). Conditions: protein concentration: 200 nM; construct: GST-DNA-binding domain.
Outline: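 Detection of bound protein used fluorescent anti-GST, with scans normalised by masliner. The proteins were GST-tagged yeast transcription factors applied at about 100-200 nM to universal all-10-mer Agilent arrays made double-stranded by primer extension. Each ungapped eight-base word, pooled with its reverse complement, was scored with an E-score from the Universal PBM Analysis Suite.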

Sequence | PBM E-score
AGTTCCCA | 0.0392
ACAGGTGA | 0.0906
AGGGTCCG | -0.137
CGCGATGC | -0.182
GCAACGGA | -0.101
GTTTGAGA | 0.311
CAGTACCG | 0.025
TAAGCAAA | 0.13
AACTCACC | 0.0491
ACAATCTC | 0.0621
ATAGAAGC | 0.112
CGTAGAAC | -0.249
ACTGGCCG | -0.168
AGGATGTA | 0.00541
GAAAAATC | 0.201
GACGTTTA | -0.0439
CTGTCTAC | -0.119
CTACTAGC | 0.0624
ACGACCCC | -0.0953
GGCCCCCA | -0.188
GACTTACC | -0.0955
CTCAGCGC | -0.104
GGGGGGTA | -0.168
AACAATTG | -0.0846
ACTCAAAC | 0.162

Sequence | PBM E-score
ACAACAGT | -0.0193
AACGGCAT | 0.0651
CAGATGAC | -0.0905
ATCCCGGG | 0.0719
CCGAGTAG | 0.0412
CAGCTGAA | -0.077
GGCCGCGA | -0.148
AGGAATTG | 0.114
ATGAAGCC | 0.154
GTGATATA | -0.0521
CACCTAGC | -0.0791
ACTGAGTC | 0.021
TCTTCACA | 0.178
CGCACAAC | 0.0739
ATCTCCGA | -0.0137
CGGACGAG | -0.118
AATGAATA | 0.0177
GTACCGCA | 0.131
CCAACACG | 0.00364
GCCTGTCC | -0.189
CTTACCAA | 0.168
CTATACCC | 0.0192
TGTCACAA | 0.3
ACTAACCT | -0.0656
ACGGAAAG | 0.187

Sequence | PBM E-score
GACGCTAC | -0.0266
GATGCTGA | -0.0794
CGGGGCTA | 0.0495
AAGTCTTG | -0.031
CTTTACTC | -0.00567
GGGTTTTA | 0.217
ACGCCCGG | 0.105
CACCCTCA | -0.13
AAAAGCTA | 0.0471
ATAAAGTA | 0.245
CTGCTCCC | -0.146
TCCTTAAA | 0.0914
AGTACCCA | 0.0412
AATCTCGG | 0.0621
TCCGCAGA | 0.0106
ATCCGCGC | -0.0259
AAACCTGG | 0.0779
CACGAGCA | -0.125
GATCAACA | -0.0858
CGTGAGAC | 0.0396
GGCCTCAA | 0.0416
AGCCCCGG | 0.146
CCCTCAGC | -0.216
AAATCACG | 0.128
CCCGCGGC | 0.224

Sequence | PBM E-score
CAGCCTCC | -0.265
ATGTTACG | -0.0262
ACTCGCAA | -0.0037
CATACATG | 0.0988
CTCCAAGC | -0.193
GGGCGCGA | -0.0182
AGAGGAAG | 0.113
AGAAATAT | 0.243
AATAACTA | 0.107
CGTCGAGA | -0.00015
GACGTGGC | -0.157
CGGAGTAA | -0.0496
CGGGACTC | -0.12
ATCCCTGG | -0.155
ATTAAAAT | 0.32
CTTATTCA | -0.0544
TAATAAGA | 0.037
CAACTCCA | -0.095
AATTGGAT | 0.0732
GCTTTGGA | 0.0524
AACATCGC | 0.0683
GACGATCA | -0.0996
ACGTCGCG | 0.0504
GTCATAAA | 0.17
AAACACGC | 0.288

Sequence | PBM E-score
CAAGTAGG | -0.0651
GACCTCTA | -0.0482
TGTGCGAA | -0.0889
AACATCTT | 0.0362
AGCATCGA | -0.00056
AGGATAAT | 0.173
ATGCAAGA | 0.117
GAAGTCTA | -0.0873
ACCAGGCG | -0.127
CGGTAGTC | -0.227
TCCCACAA | -0.0278
GCAATGAC | -0.255
CCATTAAG | -0.00534
AAAACATT | 0.28
GGTCAGAC | -0.145
ATCCATCA | 0.0451
CCTTTCCA | -0.0171
GCCTCTAA | -0.0521
CGATAACC | 0.114
CGTCGGGC | -0.0929
GAACTAAC | -0.159
CTTATCCC | 0.00653
CAGTGCCC | -0.107
AATACTCC | -0.0267
ACTGAGGC | -0.0132

Sequence | PBM E-score
AATCTATC | 0.128
AACTGGAT | 0.102
CGGTTATA | 0.0781
GAAGCGTA | -0.00895
GCACGGGA | -0.245
GACCTTTA | 0.101
CTGCCCGC | -0.0379
CAATGTGG | 0.0561
ACTAGATA | 0.12
ATAGTTTC | 0.171
CTGACTCA | -0.121
CAGTACGC | -0.0763
GATGTCTA | -0.0534
AATGGAAT | -0.0314
CCTTTACG | -0.0175
CTGAAGCC | -0.142
ATAAAGTG | 0.132
CCTAGGAA | -0.0967
ACGCTAAA | -0.118
GGCCATCA | 0.0574
ACCTTCAT | -0.00155
GATCTGAA | 0.0323
CAGTCGAA | -0.0458
AAGTTATT | 0.0481
GGCGAGAC | -0.1

Sequence | PBM E-score
ATTTTGTC | 0.114
AGGTAAAA | 0.22
TTGTACAA | -0.0082
GCAGCTGA | 0.0442
AATCTTTG | 0.0564
CTACAAAA | 0.228
GAACACCC | -0.188
GCGACAGA | 0.154
CTAGGTCC | -0.0928
AGCCACCG | -0.131
TGCTCCCA | -0.169
GGGTGCCA | -0.0859
CAAGACAA | 0.128
AAAACTAT | 0.184
CTAGATAC | -0.017
AATCGGAG | 0.038
ACCTGGAC | -0.202
AGTAAAGA | -0.06
AATTTATC | 0.281
CAAAACAG | 0.12
GAAAGGCC | -0.176
GGGAACCA | -0.143
CTGGTACA | 0.123
GGGGACTA | -0.258
AGCCAAGC | -0.0471

Sequence | PBM E-score
GCTCTCAA | -0.112
ATAGCAGA | -0.0552
AAGCCGCA | -0.00271
ATGGTTTG | 0.0887
GATTCCCC | -0.171
AACTGTTG | -0.0344
GAAGTCGA | -0.0443
CATAGCAA | 0.116
GGTGAGCA | -0.145
GCATGTAC | -0.0328
CTCGTAAG | 0.101
CGAGTGCA | -0.058
AGCTTATC | 0.0209
CGGCTGAG | -0.141
CTCCCGAG | -0.29
ATTGCGAC | 0.277
CACTTCTC | -0.0367
GCGGTGGA | -0.00579
AGGCGGAT | 0.0168
CCTTACTC | 0.096
ATTAATAC | 0.263
GAGGCCTC | -0.147
ACAACGAC | 0.0895
CTCAGGTA | -0.153
ACGGCTCC | -0.116

Sequence | PBM E-score
ACGTTAGC | -0.0146
ATGTACTG | 0.0248
CAGTAAAC | 0.121
CCTAGGCA | 0.0176
CGAAGTAG | -0.186
ACGCAGGC | -0.088
AAGTCCTG | -0.137
TAAGGTGA | -0.0689
AAAAAGGA | 0.0687
TGTTAAAA | 0.168
CCTGAAGC | -0.107
ATATTAAA | 0.29
CGGTACCA | -0.0434
CTTTACGA | -0.0396
ACACACCG | -0.00474
AGTCTCTG | -0.13
ATCAAGTC | -0.0521
CAGCGGGA | -0.137
AGAAAATC | 0.176
